Experimental data as given in article PMC4336329 (PLoS ONE, 2015).
Hit rate of the full screen: of about 310,000 compounds, about 2,200 (0.71%) showed an effect of 50% or more. Effects have a minus sign here. The list shows a part of the results. Where a SMILES comes first, the peptide text is derived from it. [ ]: non-standard residue; d: D form. The star is where a group is joined. ξ: configuration not given here. ξPhe(4-Me) = Cc1ccc(CC(N)C(=O)O)cc1; Bz = O=C(c1ccccc1)*

Each compound was assayed against human ether-à-go-go-related gene (hERG) potassium channel (human, UniProt Q12809) (assay: primary screen, population patch clamp on CHO cells stably expressing hERG).
Sequence of human ether-à-go-go-related gene (hERG) potassium channel (Q12809 whole entry, looked up): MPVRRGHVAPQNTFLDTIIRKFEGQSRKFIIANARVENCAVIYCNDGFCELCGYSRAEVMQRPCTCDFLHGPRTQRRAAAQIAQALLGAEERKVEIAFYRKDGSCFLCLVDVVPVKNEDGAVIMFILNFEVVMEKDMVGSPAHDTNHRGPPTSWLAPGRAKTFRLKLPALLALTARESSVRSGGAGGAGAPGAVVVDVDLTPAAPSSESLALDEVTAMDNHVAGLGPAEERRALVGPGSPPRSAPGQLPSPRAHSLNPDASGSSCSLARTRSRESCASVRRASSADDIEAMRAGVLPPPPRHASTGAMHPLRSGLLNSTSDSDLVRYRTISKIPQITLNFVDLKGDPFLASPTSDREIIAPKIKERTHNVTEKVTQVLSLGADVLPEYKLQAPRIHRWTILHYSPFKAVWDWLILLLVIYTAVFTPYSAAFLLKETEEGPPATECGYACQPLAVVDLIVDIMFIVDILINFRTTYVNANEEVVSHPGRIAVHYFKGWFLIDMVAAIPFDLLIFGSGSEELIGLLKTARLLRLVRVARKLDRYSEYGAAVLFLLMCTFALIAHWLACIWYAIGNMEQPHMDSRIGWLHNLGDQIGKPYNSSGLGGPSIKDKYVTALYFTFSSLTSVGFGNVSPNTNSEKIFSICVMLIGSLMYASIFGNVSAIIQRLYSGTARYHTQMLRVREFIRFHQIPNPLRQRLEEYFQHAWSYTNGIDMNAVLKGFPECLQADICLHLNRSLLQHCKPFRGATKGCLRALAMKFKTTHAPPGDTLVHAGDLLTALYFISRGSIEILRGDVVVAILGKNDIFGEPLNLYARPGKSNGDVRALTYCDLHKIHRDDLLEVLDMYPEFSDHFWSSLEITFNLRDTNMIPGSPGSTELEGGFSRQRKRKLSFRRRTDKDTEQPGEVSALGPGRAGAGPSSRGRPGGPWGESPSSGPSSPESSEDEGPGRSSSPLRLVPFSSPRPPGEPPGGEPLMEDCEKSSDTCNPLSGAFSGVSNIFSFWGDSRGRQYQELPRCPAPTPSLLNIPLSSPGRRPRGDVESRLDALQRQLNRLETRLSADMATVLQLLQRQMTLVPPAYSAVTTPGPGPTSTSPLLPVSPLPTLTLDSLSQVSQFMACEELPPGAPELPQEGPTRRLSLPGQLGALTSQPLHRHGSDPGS

In order of falling “hERG current change (%, negative = inhibition) at 1uM” value:
1. Cc1ccc(C(=O)COc2ccc3ccc(=O)oc3c2)cc1  43.3%
2. C/C(N)=C(/C#N)C(=O)CSc1nnc(-c2ccc3c(c2)OCO3)o1  20.4%
3. COc1ccc(S(=O)(=O)NC(Cc2cnc[nH]2)C(=O)O)cc1 (stereo not shown)  20.4%
4. CCOC(=O)[C@H](CCc1ccccc1)N[C@@H](C)C(=O)N1CCC[C@H]1C(=O)O.O=C(O)/C=C\C(=O)O  17.7%
5. CNC(=O)c1ccc(S(=O)(=O)c2ccc(Cl)cc2)c(NC(C)=O)c1  17.5%
6. CCCc1[nH]c(=O)c(C#N)c2c1COC(C)(C)C2  17.4%
7. CCOC(=O)c1c(C)[nH]c(C)c1S(=O)(=O)Nc1ccc(CN2CCCCC2)cc1  17.3%
8. Fc1ccccc1N1CCN(CC2CCCCC2)CC1  16.2%
9. O=C(NC1CCCCC1)C1CCN(S(=O)(=O)c2cccc3nsnc23)CC1  16.2%
10. Cc1sc2ncnc(OCC(=O)NCC3CCCO3)c2c1C (stereo not shown)  15.2%
11. O=C(CSCc1ccccc1)Nc1cc([N+](=O)[O-])ccc1F  15.1%
12. Cn1c(=O)oc2cc(S(=O)(=O)Nc3ccc(O)cc3)ccc21  14.7%
13. Cc1ccc(O)c(N=Nc2ccc(S(=O)(=O)N3CCOCC3)cc2)c1  14.2%
14. O=C(Cn1cnc2c(oc3ccccc32)c1=O)N1CCCC1  12.5%
15. O=C(CN1C(=O)NC2(CCCCCC2)C1=O)N1CCN(c2ccccc2)CC1  12.3%
16. CCCCc1nc2cc(C(=O)N(C)C3CCOCC3)ccc2o1  12.3%
17. COc1ccc(CCCC(=O)N/N=C/c2ccc(C)cc2)cc1  11.7%
18. CC1CC1C(=O)OCC(=O)NCc1ccc(Cl)cc1 (stereo not shown)  11.6%
19. C=CCn1c(CCC(O)CCCCC)n[nH]c1=S (stereo not shown)  11.6%
20. CCc1cccc(C)c1NC(=S)NCc1ccc2[nH]c(C)cc2c1  11.4%
21. Nc1ccc(N2CCN(C(=O)c3cccs3)CC2)cc1  11.3%
22. Cc1ccc(NC(=O)CN(C)C(=O)c2cccc(S(=O)(=O)N3CCCC3)c2)cc1  11.2%
23. Cc1cc(C)cc(NC(=S)N2CCC(c3nc4ccccc4s3)CC2)c1  11%
24. Cc1onc(-c2ccccc2)c1CNC(=O)CN1C(=O)c2ccccc2C1=O  11%
25. CC(=O)c1ccc(NC(=O)NC2CCCCCCC2)cc1  10.8%
26. COc1cccc(Nc2nc(N)nc(CCl)n2)c1  10.8%
27. Cc1ccccc1/C=C/c1cc[n+](C)cc1.[I-]  10.5%
28. O=C(NCC1CCCO1)C1CCN(S(=O)(=O)c2ccccc2)CC1 (stereo not shown)  10.1%
29. Cc1cc(N2CCCCC2)n2ncc(-c3ccccc3)c2n1  9.98%
30. COc1ccccc1C(=O)NNC(=O)c1ccccc1  9.59%
31. COc1ccc(OC)c(C(C)NC(=S)Nc2ccc(S(=O)(=O)Nc3ncccn3)cc2)c1 (stereo not shown)  9.37%
32. COc1ccccc1OCC(=O)N1CCN(C(=O)COc2ccccc2OC)CC1  9.19%
33. Cn1c(=O)c2c(ncn2CC(=O)N2CCN(c3ccccc3)CC2)n(C)c1=O  8.13%
34. Cc1c(C(=O)NC(Cc2ccccc2)c2nc3ccccc3[nH]2)cccc1[N+](=O)[O-] (stereo not shown)  8.01%
35. COc1cccc(-c2nc(CS(=O)CC(=O)N3CCC4(CC3)OCCO4)c(C)o2)c1 (stereo not shown)  7.84%
36. C=CCNC(=O)c1ccccc1NC(=O)COc1ccccc1  7.77%
37. CCc1ccc(Oc2nc([N+](=O)[O-])nn2C)cc1  7.02%
38. Cc1ccc(-n2c(SCC(=O)N/N=C/c3ccc(C)s3)nnc2-c2ccccc2)cc1  7.01%
39. CS(=O)(=O)N(CC(=O)N/N=C/c1cccc2c1OCCO2)c1ccccc1Br  6.98%
40. O=C(COC(=O)c1cc(=O)[nH]c(=O)[nH]1)Nc1cccc(S(=O)(=O)N2CCOCC2)c1  6.94%
41. COCCNC(=O)NC(=O)COC(=O)c1ccc2[nH]c3c(c2c1)CCCC3  6.92%
42. COC(=O)c1ccc(NC(=O)NS(=O)(=O)c2ccc(C)cc2)cc1  6.88%
43. Cc1cc(C)c(S(=O)(=O)N2CCN=C2c2ccccc2)c(C)c1  6.65%
44. Cl.NNC(N)=O  6.55%
45. COc1cc(/C=C/C(=O)O)cc(S(=O)(=O)Nc2ccccc2Cl)c1OC  6.2%
46. CN(Cc1ccccc1)c1ccc(S(=O)(=O)N2CCOCC2)cn1  6.19%
47. CCOC(=O)N1CCN(C(=O)CN(C2CCCCC2)S(=O)(=O)c2c(C)cc(C)cc2C)CC1  6.09%
48. CCOc1ccc(N2C(=O)C3C(c4ccccc4F)NN(C(=O)c4ccc(C)cc4)C3C2=O)cc1 (stereo not shown)  5.89%
49. CCN(CC)CCNC(=O)Cn1nc(Cc2ccncc2)c2ccccc2c1=O  5.65%
50. COc1cc(NC(=O)CCC(=O)Nc2ccc3nc(N4CCOCC4)cc(C)c3c2)cc(OC)c1OC  4.83%
51. CSc1cccc(CN2CCCC(C(=O)Nc3cccc(-n4cccn4)c3)C2)c1 (stereo not shown)  4.66%
52. COc1ccc(OC)c(C2=NO[C@@H]3C(=O)N(c4cc(Cl)ccc4OC)C(=O)[C@H]23)c1  4.33%
53. Cc1ccccc1-n1c(SCC(=O)NCc2cccs2)nc2ccccc2c1=O  3.82%
54. O=C(NC1CCCC1)C1C2C=CC(C2)C1C(=O)N1CCOCC1 (stereo not shown)  3.68%
55. CCCCCc1nnc(NC(=O)c2cccc(S(=O)(=O)N3CCOCC3)c2)s1  3.59%
56. COc1ccc(C(=O)CN2CCN(S(=O)(=O)c3cccc([N+](=O)[O-])c3)CC2)cc1OC  3.44%
57. CC(C)(C)C(=O)Nc1ccccc1C(=O)NCCCn1ccnc1  3.25%
58. N/C(Cc1ccc(Cl)cc1Cl)=N\OC(=O)Cc1cccs1  2.98%
59. OCCn1c(SCCOc2ccccc2F)nc2ccccc21  2.78%
60. Cc1ccc(CNC(=O)C(=O)NCC2OCCN2C(=O)c2cccs2)cc1 (stereo not shown)  2.77%
61. O=C(CCc1ccccc1)NC(=S)NCc1ccco1  2.67%
62. Cc1ccc(C)c(S(=O)(=O)NCCCn2ccnc2)c1  1.95%
63. Cc1ccccc1SCC(=O)OCC(=O)N(C)c1c(N)n(Cc2ccccc2)c(=O)[nH]c1=O  1.71%
64. COc1ccc(C2N3CC4(C)CN2CC(C)(C3)C4=O)cc1OC (stereo not shown)  1.56%
65. Cc1ccc(CN(c2ccc(C(=O)NCc3ccccn3)cc2)S(C)(=O)=O)cc1  0.446%
66. COc1ccc(CCNC(=O)c2ccccc2OCc2c(C)noc2C)cc1  0.113%
67. O=C(NCCN1CCCCC1)/C(=C/c1ccco1)NC(=O)c1ccccc1  -0.663%
68. O=C(NNC(=O)c1ccccc1Br)c1ccc(SCC2CCCO2)c([N+](=O)[O-])c1 (stereo not shown)  -0.748%
69. O=C(O)Cc1ccc(O)c(O)c1  -1.89%
70. Cc1ccc(CC(NC(=O)c2ccccc2)C(=O)NCC(=O)O)cc1 (stereo not shown) (Bz-[ξPhe(4-Me)]-Gly-OH)  -2.48%
71. CCCN1C(=O)C2(/C(=C(\O)c3ccc4c(c3)OCCO4)C(=O)C(=O)N2CCCOC)c2ccccc21 (stereo not shown)  -3.16%
72. CN(c1ccc(C(=O)NCc2ccc3c(c2)OCO3)cc1)S(C)(=O)=O  -3.58%
73. COCC(=O)N(Cc1ccccc1)c1ccccn1  -3.95%
74. CCCCn1c(N)c(N(CCC(C)C)C(=O)c2ccc([N+](=O)[O-])s2)c(=O)[nH]c1=O  -4.63%
75. Cc1csc(=Nc2c(C)n(C)n(-c3ccccc3)c2=O)n1Cc1ccccc1  -4.69%
76. COc1ccc(CCNC(=O)c2ccc(CNS(=O)(=O)c3cc(C)ccc3C)cc2)cc1OC  -4.81%
77. CCC(=O)c1c(NC)cc(C)oc1=O  -5.11%
78. Cc1ccc(SCc2ccc(C(=O)NCc3ccncc3)cc2)cc1  -5.21%
79. C=CCn1c(CCNC(=O)c2cccs2)nnc1SCC(=O)c1ccc(Br)cc1  -5.35%
80. COc1cc(/C=N/Nc2nc(Nc3ccccc3)nc(-n3nc(C)cc3C)n2)cc(OC)c1OC  -5.71%
81. COc1ccc2c(c1)C(=O)CC(c1ccccc1F)O2 (stereo not shown)  -5.78%
82. COc1ccccc1N1CCN(Cc2cc(=O)c(OCC(=O)NC3CCCC3)co2)CC1  -5.97%
83. O=C(Nc1ccccc1)N1CCCN(c2ccc(C(F)(F)F)cn2)CC1  -8.06%
84. Cc1ccc(-c2nnc(SCC(=O)CC(=O)Nc3ccccc3)n2-c2ccccc2)cc1  -8.23%
85. Cc1ccc(S(=O)(=O)N(C)CC(=O)Nc2nc3ccccc3s2)cc1  -9.27%
86. CCOC(=O)C1CCCN(C(=O)c2sc3nc(-c4ccc(F)cc4)cn3c2C)C1 (stereo not shown)  -17.8%
87. CCOC(=O)C1CCN(C(=O)CCc2c(C)nc3c(-c4ccc(F)cc4)c(C)nn3c2C)CC1  -32.2%
88. Cc1ccc(SCCN2CCN(CCc3ccccc3)CCC2=O)cc1  -39.3%
